{
  "source": "the supplement of paper PMC9588766",
  "note": "Structures can show the parent of a compound that is named as a salt. In all, about 1,900 compounds were measured (“cell viability of compound + 1 nM pemigatinib relative to pemigatinib-only (DMSO) wells”: median about 0.95, lowest 2% from about 0.22 on). This is one part of the list.",
  "data": [
    {"test_system": "PDC-DUC18828", "test": "cell viability of compound + 1 nM pemigatinib relative to pemigatinib-only (DMSO) wells (fraction); PDC-DUC18828 is a patient-derived cholangiocarcinoma cell line; higher = less growth inhibition", "settings": "first compound 1 µM; pemigatinib concentration 1 nM; 72 h", "method": "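Selleck Bioactive library screen in the patient-derived FGFR2 fusion-positive ICC cell line PDC-DUC18828 (500 cells/well). Each compound was tested at 1 uM with 1 nM pemigatinib, in triplicate, for 72 h. Viability was read by CellTiter-Glo and normalised to plate DMSO controls. Value is the paper's averaged normalised viability.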", "values": [
      {"smiles": "CC(C)n1cnc2c(NCCc3ccc(O)cc3)nc(-c3csc4ccccc34)nc21", "note": "[StemRegenin 1 (SR1)] + CCN1C(=O)N(c2c(F)c(OC)cc(OC)c2F)Cc2cnc3[nH]c(CN4CCOCC4)cc3c21 [pemigatinib]", "cell viability": 0.959},
      {"smiles": "CCCCOc1ccc(OCCCN2CCOCC2)cc1", "note": "[Pramoxine HCl] + CCN1C(=O)N(c2c(F)c(OC)cc(OC)c2F)Cc2cnc3[nH]c(CN4CCOCC4)cc3c21 [pemigatinib]", "cell viability": 0.98},
      {"smiles": "C[C@@H](O)[C@H]1C(=O)N2C(C(=O)OCOC(=O)C(C)(C)C)=C(SC3CN(C4=NCCS4)C3)[C@H](C)[C@H]12", "note": "[Tebipenem Pivoxil] + CCN1C(=O)N(c2c(F)c(OC)cc(OC)c2F)Cc2cnc3[nH]c(CN4CCOCC4)cc3c21 [pemigatinib]", "cell viability": 0.997},
      {"smiles": "CC1CCc2cc(F)cc3c(=O)c(C(=O)O)cn1c23", "note": "(centres undefined) [Flumequine] + CCN1C(=O)N(c2c(F)c(OC)cc(OC)c2F)Cc2cnc3[nH]c(CN4CCOCC4)cc3c21 [pemigatinib]", "cell viability": 0.914},
      {"smiles": "CC(C)c1nc(CN(C)C(=O)N[C@H](C(=O)N[C@@H](Cc2ccccc2)C[C@H](O)[C@H](Cc2ccccc2)NC(=O)OCc2cncs2)C(C)C)cs1", "note": "[Ritonavir] + CCN1C(=O)N(c2c(F)c(OC)cc(OC)c2F)Cc2cnc3[nH]c(CN4CCOCC4)cc3c21 [pemigatinib]", "cell viability": 0.994},
      {"smiles": "COc1ccccc1OCCNCC(O)COc1cccc2[nH]c3ccccc3c12", "note": "(centres undefined) [Carvedilol] + CCN1C(=O)N(c2c(F)c(OC)cc(OC)c2F)Cc2cnc3[nH]c(CN4CCOCC4)cc3c21 [pemigatinib]", "cell viability": 1},
      {"smiles": "COc1ccc(-n2nc(C(N)=O)c3c2C(=O)N(c2ccc(N4CCCCC4=O)cc2)CC3)cc1", "note": "[Apixaban] + CCN1C(=O)N(c2c(F)c(OC)cc(OC)c2F)Cc2cnc3[nH]c(CN4CCOCC4)cc3c21 [pemigatinib]", "cell viability": 1.05},
      {"smiles": "COc1ccc(C(C)=O)c(O)c1", "note": "[Paeonol] + CCN1C(=O)N(c2c(F)c(OC)cc(OC)c2F)Cc2cnc3[nH]c(CN4CCOCC4)cc3c21 [pemigatinib]", "cell viability": 1.01},
      {"smiles": "Nc1cccc(-c2cc3c(Oc4cccc(O)c4)ncnc3[nH]2)c1", "note": "+ CCN1C(=O)N(c2c(F)c(OC)cc(OC)c2F)Cc2cnc3[nH]c(CN4CCOCC4)cc3c21 [pemigatinib]", "cell viability": 0.804},
      {"smiles": "CC(C)[C@H]1CC[C@H](C(=O)N[C@H](Cc2ccccc2)C(=O)O)CC1", "note": "[Nateglinide] + CCN1C(=O)N(c2c(F)c(OC)cc(OC)c2F)Cc2cnc3[nH]c(CN4CCOCC4)cc3c21 [pemigatinib]", "cell viability": 0.989},
      {"smiles": "COc1c(O)cc2c(c1O)[C@@H]1O[C@H](CO)[C@@H](O)[C@H](O)[C@H]1OC2=O", "note": "[Bergenin] + CCN1C(=O)N(c2c(F)c(OC)cc(OC)c2F)Cc2cnc3[nH]c(CN4CCOCC4)cc3c21 [pemigatinib]", "cell viability": 0.935},
      {"smiles": "CCc1c(C(=O)NCCc2ccc(N3CCCCC3)cc2)[nH]c2ccc(Cl)cc12", "note": "+ CCN1C(=O)N(c2c(F)c(OC)cc(OC)c2F)Cc2cnc3[nH]c(CN4CCOCC4)cc3c21 [pemigatinib]", "cell viability": 1.01},
      {"smiles": "CN1CCN(c2ccc(C(=O)Nc3n[nH]c4ccc(Cc5cc(F)cc(F)c5)cc34)c(NC3CCOCC3)c2)CC1", "note": "[Entrectinib (RXDX-101)] + CCN1C(=O)N(c2c(F)c(OC)cc(OC)c2F)Cc2cnc3[nH]c(CN4CCOCC4)cc3c21 [pemigatinib]", "cell viability": 0.818},
      {"smiles": "Nc1ncnc2c1c(-c1cccc(OCc3ccccc3)c1)cn2C1CC(CN2CCCC2)C1", "note": "(centres undefined) + CCN1C(=O)N(c2c(F)c(OC)cc(OC)c2F)Cc2cnc3[nH]c(CN4CCOCC4)cc3c21 [pemigatinib]", "cell viability": 0.911},
      {"smiles": "O=C(Nc1cccc(Cl)c1)Nc1ncc(CCNc2ncnc3ccsc23)s1", "note": "[SNS-314 Mesylate] + CCN1C(=O)N(c2c(F)c(OC)cc(OC)c2F)Cc2cnc3[nH]c(CN4CCOCC4)cc3c21 [pemigatinib]", "cell viability": 0.628},
      {"smiles": "Nc1nc(N)nc(-c2cc(Cl)ccc2Cl)n1", "note": "[Irsogladine] + CCN1C(=O)N(c2c(F)c(OC)cc(OC)c2F)Cc2cnc3[nH]c(CN4CCOCC4)cc3c21 [pemigatinib]", "cell viability": 0.986},
      {"smiles": "CCN1CCCC1CNC(=O)c1cc(S(=O)(=O)CC)c(N)cc1OC", "note": "(centres undefined) [Amisulpride] + CCN1C(=O)N(c2c(F)c(OC)cc(OC)c2F)Cc2cnc3[nH]c(CN4CCOCC4)cc3c21 [pemigatinib]", "cell viability": 0.941},
      {"smiles": "CCCS(=O)(=O)Nc1ccc(F)c(C(=O)c2c[nH]c3ncc(Cl)cc23)c1F", "note": "+ CCN1C(=O)N(c2c(F)c(OC)cc(OC)c2F)Cc2cnc3[nH]c(CN4CCOCC4)cc3c21 [pemigatinib]", "cell viability": 0.954},
      {"smiles": "CNC(=O)CN1CCC(Oc2cc3c(Nc4cccc(Cl)c4F)ncnc3cc2OC)CC1", "note": "[AZD8931 (Sapitinib)] + CCN1C(=O)N(c2c(F)c(OC)cc(OC)c2F)Cc2cnc3[nH]c(CN4CCOCC4)cc3c21 [pemigatinib]", "cell viability": 0.809},
      {"smiles": "CCOc1cc(N2CCC(O)CC2)ccc1Nc1ncc2c(n1)N(C)c1ccccc1C(=O)N2C", "note": "+ CCN1C(=O)N(c2c(F)c(OC)cc(OC)c2F)Cc2cnc3[nH]c(CN4CCOCC4)cc3c21 [pemigatinib]", "cell viability": 0.913},
      {"smiles": "CNC(=O)c1ccccc1Sc1ccc2c(/C=C/c3ccccn3)n[nH]c2c1", "note": "[Axitinib] + CCN1C(=O)N(c2c(F)c(OC)cc(OC)c2F)Cc2cnc3[nH]c(CN4CCOCC4)cc3c21 [pemigatinib]", "cell viability": 0.753},
      {"smiles": "Cc1ccc(NC(=O)Nc2cc(C(F)(F)F)ccc2F)cc1Nc1ccc2c(c1)NC(=O)/C2=C\\c1ccc[nH]1", "note": "+ CCN1C(=O)N(c2c(F)c(OC)cc(OC)c2F)Cc2cnc3[nH]c(CN4CCOCC4)cc3c21 [pemigatinib]", "cell viability": 0.934},
      {"smiles": "Fc1ccc2[nH]ccc2c1-c1nc(N2CCOCC2)c2sc(CN3CCN(CC4CC4)CC3)cc2n1", "note": "+ CCN1C(=O)N(c2c(F)c(OC)cc(OC)c2F)Cc2cnc3[nH]c(CN4CCOCC4)cc3c21 [pemigatinib]", "cell viability": 0.828},
      {"smiles": "CC(CN1c2ccccc2Sc2ccccc21)N(C)C", "note": "(centres undefined) [Promethazine HCl] + CCN1C(=O)N(c2c(F)c(OC)cc(OC)c2F)Cc2cnc3[nH]c(CN4CCOCC4)cc3c21 [pemigatinib]", "cell viability": 0.972}
    ]}
  ]
}
